Measured values taken from publication PMC12405630.
No constants are given. Whether binding was seen depends on the method and setting. Binding seen in cells or lysates may run through a third protein. Some entries that bind do so weakly or less than the wild type. For some assays here: Sequences can lack the tags named with a protein. Each block holds one molecule with its values, some of them ahead of it.

Protein sequences, listed by entry. Tags and fused reporters are not part of them.
UniProt O95136: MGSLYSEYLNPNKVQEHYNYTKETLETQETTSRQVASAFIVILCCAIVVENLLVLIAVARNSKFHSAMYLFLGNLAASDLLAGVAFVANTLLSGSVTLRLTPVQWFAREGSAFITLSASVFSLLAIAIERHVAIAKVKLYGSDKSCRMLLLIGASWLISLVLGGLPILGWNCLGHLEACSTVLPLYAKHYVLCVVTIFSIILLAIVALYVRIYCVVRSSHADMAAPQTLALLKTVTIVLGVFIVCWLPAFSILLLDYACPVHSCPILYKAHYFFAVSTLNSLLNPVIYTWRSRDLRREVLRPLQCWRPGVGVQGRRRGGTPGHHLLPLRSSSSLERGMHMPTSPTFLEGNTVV
UniProt Q99500: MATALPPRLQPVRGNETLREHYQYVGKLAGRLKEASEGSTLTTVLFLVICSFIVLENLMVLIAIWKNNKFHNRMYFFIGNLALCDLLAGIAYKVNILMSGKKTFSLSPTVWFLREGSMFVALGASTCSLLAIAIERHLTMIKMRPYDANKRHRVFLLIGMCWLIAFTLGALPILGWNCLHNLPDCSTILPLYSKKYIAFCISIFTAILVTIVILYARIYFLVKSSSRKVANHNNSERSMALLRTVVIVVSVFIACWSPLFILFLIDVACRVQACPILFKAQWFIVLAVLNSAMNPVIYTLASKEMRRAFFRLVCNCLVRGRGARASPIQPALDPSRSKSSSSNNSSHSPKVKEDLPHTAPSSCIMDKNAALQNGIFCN
UniProt P50148: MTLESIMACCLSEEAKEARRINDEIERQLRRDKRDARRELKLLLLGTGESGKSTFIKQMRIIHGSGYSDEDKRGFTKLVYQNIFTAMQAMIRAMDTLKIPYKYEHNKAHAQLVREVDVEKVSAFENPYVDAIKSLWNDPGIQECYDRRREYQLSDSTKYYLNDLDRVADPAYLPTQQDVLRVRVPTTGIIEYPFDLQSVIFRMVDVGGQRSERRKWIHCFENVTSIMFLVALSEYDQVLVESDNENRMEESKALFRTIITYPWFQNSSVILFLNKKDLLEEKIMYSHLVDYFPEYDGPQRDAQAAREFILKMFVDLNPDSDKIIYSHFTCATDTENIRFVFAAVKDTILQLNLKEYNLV

What was measured:
[1] = target: T1, RGS2-Luc (UniProt P41220); assay: FRET or BRET; competition: live 293T cells with RGS2-Luc and S1P2-Venus or S1P3-Venus, along with untagged S1P2 or S1P3
T1 sequence: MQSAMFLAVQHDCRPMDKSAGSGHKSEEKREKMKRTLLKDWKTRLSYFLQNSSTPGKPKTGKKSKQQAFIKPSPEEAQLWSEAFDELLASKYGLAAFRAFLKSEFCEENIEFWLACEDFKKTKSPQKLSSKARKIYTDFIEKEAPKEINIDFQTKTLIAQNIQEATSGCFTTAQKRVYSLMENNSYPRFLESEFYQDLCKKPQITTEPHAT

[2] = target: S1P2-Luc (UniProt O95136); assay: FRET or BRET; live HCT116 cells; S1P2-Luc or S1P3-Luc donor (0.03 ug) with Gα-YFP acceptor (2.0 ug), no RGS2 co-expressed; with or without agonist
[3] = target: S1P3-Luc (UniProt Q99500); assay: as above
[4] = target: S1P2-Luc (UniProt O95136); assay: FRET or BRET; live HCT116 cells; S1P2-Luc or S1P3-Luc donor (0.03 ug) with Gα-YFP acceptor (2.0 ug) and untagged RGS2 (0.5 ug) co-expressed; with or without agonist
[5] = target: S1P3-Luc (UniProt Q99500); assay: as above
[6] = target: S1P2-Luc (UniProt O95136); assay: FRET or BRET; live HCT116 cells; S1P2-Luc or S1P3-Luc donor (0.03 ug) with RGS1-Venus or RGS2-Venus acceptor (2.0 ug); also with Gα isoforms co-expressed and with or without agonist
[7] = target: S1P3-Luc (UniProt Q99500); assay: as above
[8] = target: S1P2-Luc (UniProt O95136); assay: FRET or BRET; live 293T cells; S1P2-Luc or S1P3-Luc donor (0.03 ug plasmid) with RGS-Venus acceptor (0-2.0 ug); also with Gα^EE isoforms co-expressed and with or without agonist (CYM5520, CYM5541); net BRET, coelenterazine H 5 uM, Tyrode's solution pH 7.4
[9] = target: S1P3-Luc (UniProt Q99500); assay: as above
[10] = target: S1P2-Venus (UniProt O95136); assay: co-IP; 293T cells cotransfected with RGS1-Luc or RGS2-Luc and S1P2-Venus or S1P3-Venus; lysis in PBS with 1% Triton X-100; immunoprecipitation with anti-GFP, blot with Renilla luciferase antibodies
[11] = target: S1P3-Venus (UniProt Q99500); assay: as above
[12] = target: S1P2-Venus (UniProt O95136); assay: FRET or BRET; live 293T cells; RGS-Luc donor (0.03 ug plasmid) with S1P2-Venus or S1P3-Venus acceptor (0-2.0 ug), or Lyn-YFP as acceptor (also with untagged S1P2 or S1P3 co-expressed, with or without receptor stimulation); net BRET, coelenterazine H 5 uM, Tyrode's solution pH 7.4
[13] = target: S1P3-Venus (UniProt Q99500); assay: as above
[14] = target: S1P2 (endogenous, HCT116) (human (endogenous in HCT116)) (UniProt O95136); assay: co-IP; untransfected HCT116 cells, with or without agonist; lysis in PBS with 1% Triton X-100; immunoprecipitation with antibodies against S1P2 or S1P3, blot with anti-RGS1 and anti-RGS2
[15] = target: S1P3 (endogenous, HCT116) (human (endogenous in HCT116)) (UniProt Q99500); assay: as above
[16] = target: S1P2-Venus (UniProt O95136); assay: FRET or BRET; competition: live 293T cells with RGS2-Luc and S1P2-Venus or S1P3-Venus, along with untagged S1P2 or S1P3
[17] = target: S1P3-Venus (UniProt Q99500); assay: as above

binding [6]: no binding | binding [7]: no binding | binding [8]: no binding | binding [9]: no binding
B1: RGS1-Venus (protein, UniProt Q08116 1-209)
chain: MRAAAISTPKLDKMPGMFFSANPKELKGTTHSLLDDKMQKRRPKTFGMDMKAYLRSMIPHLESGMKSSKSKDVLSAAEVMQWSQSLEKLLANQTGQNVFGSFLKSEFSEENIEFWLACEDYKKTESDLLPCKAEEIYKAFVHSDAAKQINIDFRTRESTAKKIKAPTPTCFDEAQKVIYTLMEKDSYPRFLKSDIYLNLLNDLQANSLK

binding [14]: no binding | binding [15]: no binding
B3: RGS1 (endogenous, HCT116) (protein, UniProt Q08116 1-209)
chain: MRAAAISTPKLDKMPGMFFSANPKELKGTTHSLLDDKMQKRRPKTFGMDMKAYLRSMIPHLESGMKSSKSKDVLSAAEVMQWSQSLEKLLANQTGQNVFGSFLKSEFSEENIEFWLACEDYKKTESDLLPCKAEEIYKAFVHSDAAKQINIDFRTRESTAKKIKAPTPTCFDEAQKVIYTLMEKDSYPRFLKSDIYLNLLNDLQANSLK

binding [6]: binds | binding [7]: binds | binding [8]: binds | binding [9]: binds
B4: RGS2-Venus (protein, UniProt P41220 1-211)
chain: MQSAMFLAVQHDCRPMDKSAGSGHKSEEKREKMKRTLLKDWKTRLSYFLQNSSTPGKPKTGKKSKQQAFIKPSPEEAQLWSEAFDELLASKYGLAAFRAFLKSEFCEENIEFWLACEDFKKTKSPQKLSSKARKIYTDFIEKEAPKEINIDFQTKTLIAQNIQEATSGCFTTAQKRVYSLMENNSYPRFLESEFYQDLCKKPQITTEPHAT

Further lines, the molecule ahead of its results:

Molecule: untagged S1P2 (from UniProt O95136 1-353) (receptor)
binding [1]: binds

Molecule: Gαq-YFP (from UniProt P50148 1-359)
binding [2]: binds | binding [3]: binds | binding [4]: binds | binding [5]: binds

B2: RGS1-Luc (protein, UniProt Q08116 1-209)
chain: MRAAAISTPKLDKMPGMFFSANPKELKGTTHSLLDDKMQKRRPKTFGMDMKAYLRSMIPHLESGMKSSKSKDVLSAAEVMQWSQSLEKLLANQTGQNVFGSFLKSEFSEENIEFWLACEDYKKTESDLLPCKAEEIYKAFVHSDAAKQINIDFRTRESTAKKIKAPTPTCFDEAQKVIYTLMEKDSYPRFLKSDIYLNLLNDLQANSLK
binding [10]: no binding | binding [11]: no binding | binding [12]: no binding | binding [13]: no binding

B5: RGS2^S179D (protein, UniProt P41220 1-211)
chain: MQSAMFLAVQHDCRPMDKSAGSGHKSEEKREKMKRTLLKDWKTRLSYFLQNSSTPGKPKTGKKSKQQAFIKPSPEEAQLWSEAFDELLASKYGLAAFRAFLKSEFCEENIEFWLACEDFKKTKSPQKLSSKARKIYTDFIEKEAPKEINIDFQTKTLIAQNIQEATSGCFTTAQKRVYDLMENNSYPRFLESEFYQDLCKKPQITTEPHAT
binding [8]: binds | binding [9]: binds

B6: RGS2 (endogenous, HCT116) (protein, UniProt P41220 1-211)
chain: MQSAMFLAVQHDCRPMDKSAGSGHKSEEKREKMKRTLLKDWKTRLSYFLQNSSTPGKPKTGKKSKQQAFIKPSPEEAQLWSEAFDELLASKYGLAAFRAFLKSEFCEENIEFWLACEDFKKTKSPQKLSSKARKIYTDFIEKEAPKEINIDFQTKTLIAQNIQEATSGCFTTAQKRVYSLMENNSYPRFLESEFYQDLCKKPQITTEPHAT
binding [14]: binds | binding [15]: binds

B7: RGS2-Luc (protein, UniProt P41220 1-211)
chain: MQSAMFLAVQHDCRPMDKSAGSGHKSEEKREKMKRTLLKDWKTRLSYFLQNSSTPGKPKTGKKSKQQAFIKPSPEEAQLWSEAFDELLASKYGLAAFRAFLKSEFCEENIEFWLACEDFKKTKSPQKLSSKARKIYTDFIEKEAPKEINIDFQTKTLIAQNIQEATSGCFTTAQKRVYSLMENNSYPRFLESEFYQDLCKKPQITTEPHAT
binding [16]: binds | binding [17]: binds | binding [10]: binds | binding [11]: binds | binding [12]: binds | binding [13]: binds
